The other results are listed elsewhere or left out.

From PMC12136788 come the findings set out here.

First the molecules themselves.
T1: UNK ZnF1-3 (human, UniProt Q9C0B0 31-174)
T1 sequence: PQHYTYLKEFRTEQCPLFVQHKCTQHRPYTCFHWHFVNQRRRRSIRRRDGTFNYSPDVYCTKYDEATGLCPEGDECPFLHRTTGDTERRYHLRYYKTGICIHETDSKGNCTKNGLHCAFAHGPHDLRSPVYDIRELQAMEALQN

B1: chr14:61442442:61442443:-_ENSG00000126814_ENST00000261249|hu_hu|FALSE|FALSE (ssRNA)
RNA: GGGAGUUCUACAGUCCGACGAUCUAUGGGAAGGAACUCACUGCUGCAUGGCUGCCCAUCUAAAAGCCACUUGAAAGCACUAAGAAACUCUAUAGCUUUUGCUGGCAAGUUCAUGACAACGUGCACAGAGGGUUUUCUUUCUUUCAACAGAGGAUUGAGCAUCA
B2: chr11:46405157:46405158:+_ENSG00000110492_ENST00000395566|hu_hu|hu_hu_hu_mus_False|78_98 (ssRNA)
RNA: GGGAGUUCUACAGUCCGACGAUCCCCUCCCCACUUUGGCUGGGGAGUGUGGGCGUGAAGGCAGGGCCGUGAUUGACAGAGCUGACAGGAAGACAAAAGGCACUGGUGGGUUAUAUCUUGGGCCUGUGGGAGAGGAGGGCUCCGCAACAGAGGAUUGAGCAUCA
B3: chr7:149068622:149068623:-_ENSMUSG00000025139_ENSMUST00000001950|mus_hu|mus_mus_mus_hu_False|28_58 (ssRNA)
RNA: GGGAGUUCUACAGUCCGACGAUCGUGAGGCCUCUGAGUGUGGCUUGUGGUCUGUCCUGGGUUAGAGUUGUUAAUAUCACUAAGUGGACCAUCUAGAACGUUCCAGUCUGCCUGACUACCUUCAUUCCCAAUGGAGAAGAAAUCCAACAGAGGAUUGAGCAUCA
B4: chr1:17152557:17152558:+_ENSMUSG00000025777_ENSMUST00000026879|mus_hu|motif|central (ssRNA)
RNA: GGGAGUUCUACAGUCCGACGAUCAUACCCACUACCCAGCCAAUACCUAGACAUGCUAGUGAUUAGCUGGGACAUUCACCGGAAUGCCACUUAUGUGUAUGAAGAGGGCUACAGAUGCCACCCUUUCUACCUCCCACUGACUGGCAACAGAGGAUUGAGCAUCA
B5: chr11:87044496:87044497:-_ENSMUSG00000046442_ENSMUST00000055438|mus_hu|FALSE|FALSE (ssRNA)
RNA: GGGAGUUCUACAGUCCGACGAUCUGGAAUAUCAUGAGUCUUUCUGAGCUUCCUCAUGUUUUCACUGUACCCUUUCCAACUAUUUUGCCUCCAUGGCAGAGAACUUCUUAUCCUAUUUCUCUUCCCACUUCCAGUAAGUGAGGACAACAGAGGAUUGAGCAUCA
B6: chr9:14812383:14812384:-_ENSMUSG00000031934_ENSMUST00000164273|mus_mus|mus_mus_mus_hu_True|48_78 (ssRNA)
RNA: GGGAGUUCUACAGUCCGACGAUCAUAGCCCAGGUAGAUACACGCUAACAGUAUAAUCACAAAUGUCAGCAGGCGGCAGCUAAUGUAUUUCAUGAUUAAAUUAUUAGAAUUUUUCUUUGUCUUCAAGUACUGCUCCACAAUUGGCAACAGAGGAUUGAGCAUCA
B7: 52470271_52471310_1365_CDS_ENSMUSG00000028312_ENSMUST00000117280|mouse|control|control (ssRNA)
RNA: GGGAGUUCUACAGUCCGACGAUCGGCAUGUUUCAGCUUCAUCUGAGCCUGCUUGGCCUCAGUCUGAGCUUUGCUGAUAUCGUUUUUACAGGCUAUCAUCUGCCCAGCCAGAGUUGCUUCUGCUCCAUCUUCGUUACUGGACAACAACAGAGGAUUGAGCAUCA
B8: chr3:15292738:15292739:+_ENSG00000131375_ENST00000253693|hu_mus|FALSE|FALSE (ssRNA)
RNA: GGGAGUUCUACAGUCCGACGAUCCCAGUAAUAGCUGAGAGUUCUCAAUCAUUGGAGUUGUGUUGUCUUGAUGGGGACAGUACUAUUAAAGUCCAAGAAAAAAGGUCCUUCUUGUUUAGGCAAAAAAGUACUAGGGAUGAUAUUCAACAGAGGAUUGAGCAUCA
B9: chr12:48362563:48362564:+_ENSG00000134291_ENST00000256686|hu_hu|hu_hu_hu_mus_False|48_78 (ssRNA)
RNA: GGGAGUUCUACAGUCCGACGAUCUCCGUCAAGCCCUUCGAUAGACCCUUGCGGGGGUGGUAAAAACCACUUUGUAUGGGGAAGGAAAAAAAAAGCCAAAAACUUUCCAAAAAGCGGGGGUGGGGUGAGGCGGGAGGGGGAGGUCAACAGAGGAUUGAGCAUCA
B10: chr5:34944098:34944099:+_ENSMUSG00000029106_ENSMUST00000114338|mus_hu|FALSE|FALSE (ssRNA)
RNA: GGGAGUUCUACAGUCCGACGAUCUUGCUCCAUCAUGUUGAAGUCCUGGCGAAGGUCUGGUGCCAUGUUCCUCUCCCUCAAGUACUCUGGGUUGUUCUCAUCUACUCGGUCGAAGUACCUCUCCUUGUGAGGGGCUGUGGUCGGCAACAGAGGAUUGAGCAUCA
B11: chr11:86132931:86132932:-_ENSMUSG00000034297_ENSMUST00000043624|mus_hu|motif|central (ssRNA)
RNA: GGGAGUUCUACAGUCCGACGAUCUCCAAAAGGUCCAACUGGAUCAUCCUUGAAUUUAUCACUUGGAAGUUGAGGUGGUAAAAACUCGGCAUCUUUUUUCUUUGGGAACUUGUAAUACUUCCAGGCUAUAUUGGCUUCAUCUUCCAACAGAGGAUUGAGCAUCA
B12: chr9:88635815:88635816:+_ENSG00000135040_ENST00000361671|hu_mus|motif|central (ssRNA)
RNA: GGGAGUUCUACAGUCCGACGAUCUCCUCCUGCUAAGAGCUUCAUAACCACAAAGUUGGGCUUGGCAACCUUCAGGAUUCGGCUGACCUCACGGUCUGGAUUGGGGAUAUUUUCAAGGAUCAUUUUUGCCUGCUGAAAGUGCUUCAACAGAGGAUUGAGCAUCA
B13: 78564915_78565035_256_CDS_ENSMUSG00000049489_ENSMUST00000059468|mouse|control|control (ssRNA)
RNA: GGGAGUUCUACAGUCCGACGAUCGCCGGCCAAGUAAAUGGAAGACAUGGCGACCAGGUAGAGGUCAUAUGCGUCCAGGUUGAUCUCGCAGAAGAACUUAUGGUAAAUGGUGCAAGCGGUGGCGAUGGGGAUGGACUGCAUGCCCAACAGAGGAUUGAGCAUCA
B14: chr11:29096238:29096239:+_ENSMUSG00000020463_ENSMUST00000020755|mus_mus|motif|central (ssRNA)
RNA: GGGAGUUCUACAGUCCGACGAUCUUGCAAGUCAUCCAUGCCCAUUACAAUUUCAAGAGCUGGAAGAAUUCCCAAUUUUGCGGAGGUUUUGAAAAAAGCAUCCCUGUUCUGAGGUUGCAAUGUCUGAGAAAAUGCACAAAAUUCCAACAGAGGAUUGAGCAUCA
B15: chr5:93602159:93602160:+_ENSMUSG00000058013_ENSMUST00000074733|mus_mus|motif|central (ssRNA)
RNA: GGGAGUUCUACAGUCCGACGAUCGCAUGUCUUUAAAAGCUUUUAGGGAUGAGAGAAAUUGAAUGCAAAGGGGUGUUUUCGGUUCCAAGGCACAUACACACACACAAAAUAAAGCUCACACAAGCAGUGGCCGGAACAAGCAGACAACAGAGGAUUGAGCAUCA
B16: 55315182_55315302_772_3pUTR_ENSMUSG00000021488_ENSMUST00000099490|mouse|control|control (ssRNA)
RNA: GGGAGUUCUACAGUCCGACGAUCGUUUAUUUUUCUGUUUUUCAGUUUGAGGAGCUAACGGCAAGAAUGGCCGUUCCACUGCACCAUGUCUACUCUCUGGCAUGCUGUCUUGUUCACUUCCCAUGGCCACUUCUACACCAUUCUCAACAGAGGAUUGAGCAUCA
B17: 89285464_89287241_2550_3pUTR_ENSMUSG00000030084_ENSMUST00000163139|mouse|control|control (ssRNA)
RNA: GGGAGUUCUACAGUCCGACGAUCACAUCAUUCCCCUCAUAGGAGUACGAGGAGUUCUGGCACUGCAGGCUGGAGCUGUUGAAGCGCAGUGCAGUGACUCGGGCCGGGCUGCCUGGGAUGUGGAAAAGGCACUCGUACCCUCGCCAACAGAGGAUUGAGCAUCA
B18: chr5:145543945:145543946:-_ENSG00000133706_ENST00000545646|hu_hu|hu_hu_hu_mus_True|8_98 (ssRNA)
RNA: GGGAGUUCUACAGUCCGACGAUCCUGAACGGCCAGUGGCGGGAAAUAAUCAAGCCAGUGCUCUGCUUCAGAAAACUUCACUAUGUCGUCAUCAGAGAGCCCAAGGGAUUUCAUAAUGUCCCACUGGUAUUUAGAAGAUCCUGCCAACAGAGGAUUGAGCAUCA
B19: chr6:109690081:109690082:-_ENSG00000135535_ENST00000310786|hu_mus|FALSE|FALSE (ssRNA)
RNA: GGGAGUUCUACAGUCCGACGAUCCAGUCCACAUUAAUUUAACAGGUCUGUUUACAGAGUAUGGUAAUUUCGUUCUUUAGAUUUGCAGAACUUAUAGAGAAAGAAAAUUACAGCCUGCACACCCAAGACAAGGACGAUCCCUCCCAACAGAGGAUUGAGCAUCA
B20: chr11:837959:837960:+_ENSG00000177697_ENST00000530726|hu_hu|FALSE|FALSE (ssRNA)
RNA: GGGAGUUCUACAGUCCGACGAUCAAUGCCGAUCCCCACAGCCCCAAUGACCCUCAGGUGCUCCUGGAUGAAGGUCUCCAACUUGGUGAUGCAGCCGCCCUCCACCUUGUAGAUGUUGGAGGCAUGGUCUCGCUGCCCACAAAGCAACAGAGGAUUGAGCAUCA
B21: 123645691_123645811_3519_CDS_ENSG00000051825_ENST00000606320|human|control|control (ssRNA)
RNA: GGGAGUUCUACAGUCCGACGAUCUUCUUUUGUAAGUUCAUCAAAAAAUCGUUCUGUUUCAGCUAGGGUCCGAAUUUUUGCUGUAUAUUCAAAAUCAUUCCCCUGUGGAGUGACUGAAACCGGCUUACACUGUUCGUAGCUAACCAACAGAGGAUUGAGCAUCA
B22: 110463623_110465440_4783_CDS_ENSMUSG00000044791_ENSMUST00000153838|mouse|control|control (ssRNA)
RNA: GGGAGUUCUACAGUCCGACGAUCCUCGUCAUUUUUCAGGGCCAUGAAGUAGUAGUGGAUGUUUUUGUUCCGUGCAUAUUCUUUCACCCGAGCUUUAAACUCUUUAUGAUCAAGUACCUCUCCACAGUAUUCCAGGACAAAGGUCAACAGAGGAUUGAGCAUCA

For the assay, the target named is T1, UNK ZnF1-3. As to the kind of experiment: nsRBNS (natural sequence RNA bind-n-seq); RBNS binding buffer (assumed for nsRBNS): 25 mM Tris pH 7.5, 150 mM KCl, 3 mM MgCl2, 0.01% Triton X-100, 500 ug/ml BSA, 20 U/ml SUPERase-In, 4 C; UNK is unkempt and MSI1 is Musashi-1; names of the RNAs are library labels; protein concentration not given here; high values mean tight binding.
In turn, B1 registered a binding signal of 1.07 enrichment R. Turning to B2, the binding signal is 1.75 enrichment R. Under B3 stands 0.85 enrichment R; under B4, 0.685 enrichment R. Molecule B5 registered a binding signal of 0.469 enrichment R. Next, B6: 2.23 enrichment R; B7: 0.368 enrichment R; B8: 1.08 enrichment R. The molecule B9 came in with a binding signal of 1.62 enrichment R. Regarding B10, the binding signal was determined as 0.628 enrichment R. With B11, the binding signal is 0.728 enrichment R. B12 showed a binding signal of 0.963 enrichment R. B13 gave a binding signal of 1.15 enrichment R. Under B14 stands 1.3 enrichment R; under B15, 2.89 enrichment R; under B16, 0.381 enrichment R. B17: the binding signal came to 0.724 enrichment R.

On to B18, for which the binding signal is 1.17 enrichment R.

In turn, B19 gave a binding signal of 1.14 enrichment R. In the case of B20, the binding signal stood at 0.594 enrichment R. Under B21 stands 0.714 enrichment R. Turning to B22, the binding signal was 0.706 enrichment R.
